The results in this text go back to ChEMBL document CHEMBL4888484, “Replenishing the malaria drug discovery pipeline: Screening and hit evaluation of the MMV Hit Generation Library 1 (HGL1) against asexual blood stage Plasmodium falciparum ,using a nano luciferase reporter read-out” (2022).

In general, % Inhibition refers to the relative decrease from the control value, in per cent.

The whole screen tested about 150,000 compounds, of which about 540 (0.36%) showed an effect of 50% or more. Some of the results follow.

This assay concerns Plasmodium falciparum. Briefly: Primary screen in NF54 nanoGlo assay, in single point, at 2uM, 72h; a lower Z score goes with more inhibition. The class given is functional, Erythrocyte. Particulars: timepoint 72 hour.
Turning to `CCOCC(=O)NCCn1ccc2ccn(CC)c2c1=O`, the “% Inhibition” value was -12% and the Z score was determined as 2.24.
The matching figures for `COc1ccc(OC)c([C@@H]2CCCN2c2nnc(-c3ccccn3)s2)c1`: -13% and 2.07.
On the same counts, the results for `COc1ccc(-c2noc([C@H](C)O)c2C(=O)N2CCOCC2)cc1OC` are 2% and -0.39.
On the same counts, the results for `O=S(=O)(Cc1ccccc1)NCc1cccnc1N1CCCCCCC1` are 5% and -0.9.
As to `COC(=O)n1cc2c(n1)-c1ccccc1OC2`, the “% Inhibition” value is reported as 5% and the Z score was -0.79.
On the same counts, the results for `CN(C(=O)CCc1ccccn1)[C@H]1CCCN(Cc2ccccc2)C1` are -8% and 1.48.
The matching figures for `COc1ccc(-n2cnnc2)cc1NC(=O)c1cnc(N(C)C)nc1C`: -14% and 1.36.
The matching figures for `CCn1cncc1[C@@H]1CCCCN1c1nc(N)nc(C(F)(F)F)n1`: 9% and -1.52.
Turning to `CC(C)c1[nH]ccc1C(=O)NCCn1cncc1-c1ccccc1`, the “% Inhibition” value worked out at 9% and the Z score was -1.18.
With `CCOc1cc(CN[C@H]2CCc3ccccc32)ccn1`, the “% Inhibition” value is reported as -16% and the Z score was found to be 1.83.
The matching figures for `CC(=O)NCC1CCN(c2nc3ccccc3c(=O)[nH]2)CC1`: -2% and 0.27.
The matching figures for `O=C(O)C1c2ccccc2C(=O)N(C2CCCCC2)C1c1ccccc1` (stereo not given): -8% and 1.08.
The matching figures for `Cc1ccccc1C(=O)N1[C@H](C(=O)NCc2ccccn2)COC12CCN(C(=O)Cc1cccs1)CC2`: -8% and 0.9.
For the molecule `CN(C)C(=O)c1cnc(N(C)C)nc1[C@H]1CCN(Cc2ccncc2F)C1`, the “% Inhibition” value is given as -8% and the Z score came out at 0.99.
On the same counts, the results for `Cc1cnc(C(=O)N2CC(Oc3cc(C)nc4ncnn34)C2)cn1` are 8% and -1.06.
In the case of `CCOC(=O)N1CC[C@H](NCc2ccc(-c3ncon3)cc2)C1`, the “% Inhibition” value is listed as -10% and the Z score was determined as 1.72.
As to `O=C1c2[nH]c3ccccc3c2[C@@H](c2cccc(Cl)c2)OCCN1Cc1ccccc1`, the “% Inhibition” value came to 7% and the Z score is listed as -0.8.
Take `Cc1ccc(-c2ccc(CCC(=O)NCCc3cnn(C)c3)o2)cc1`: the “% Inhibition” value was -4% and the Z score turned out to be 0.48.
On the same counts, the results for `CO[C@H]1[C@H](NC(=O)c2ccsc2)c2ccccc2C12CCN(Cc1ccc3ncccc3c1)CC2` are 14% and -1.81.
On the same counts, the results for `CC1CN(CC(O)Cn2ccnc2C(=O)c2ccccc2)CC(C)O1` (stereo not given) are 4% and -0.57.
Consider `CC[C@H]1CCCCN1C(=O)Cc1c(C)nc2nc(-c3cccs3)nn2c1C`, for which the “% Inhibition” value is listed as -10% and the Z score was 1.19.
On the same counts, the results for `COc1cccc(N2CCN(C(=O)c3ccc4c(c3)N(Cc3ccc(F)cc3)C(=O)CO4)CC2)c1` are 2% and -0.23.
On the same counts, the results for `O=C(CN1Cc2ccccc2C1)N[C@H]1CCOC[C@@H]1O` are -4% and 0.87.
On the same counts, the results for `O=C(NCCCn1ncc2c(Cl)cccc21)c1ccco1` are 2% and -0.29.
On to `C[C@@H]1Oc2ccc(-c3csc(NC(=O)c4ccccc4Cl)n3)cc2N(C)C1=O`, for which the “% Inhibition” value is recorded as 31% and the Z score was -0.96.
On the same counts, the results for `CCCn1nccc1-c1csc(S(=O)(=O)NCc2cccc(F)c2)c1` are -3% and 0.59.
The matching figures for `O=C(c1cccc(=O)[nH]1)N1CCC[C@H](c2n[nH]c(=O)n2-c2ccccc2)C1`: 2% and -0.39.
The matching figures for `Cc1cccc2nc(NCCc3nnc(C4CCOCC4)[nH]3)sc12`: -8% and 1.07.
As for `O=C(NC1CCN(Cc2ccccc2)CC1CO)c1ccc(Cl)s1` (stereo not given), the “% Inhibition” value is -13% and the Z score turned out to be 1.55.
In the case of `COc1cccc(CNC(=O)c2ccc(NS(=O)(=O)c3ccc(-c4cccc(F)c4)cc3)cc2)c1`, the “% Inhibition” value is listed as -14% and the Z score was found to be 2.19.
On the same counts, the results for `Cc1ccccc1-c1nc2n(CC(=O)N3CCN(c4ccc(F)cc4)CC3)c(C)cc(=O)n2n1` are -9% and 1.41.
On to `CCN(CCC(=O)N1CCCC1)C(=O)c1cc2n(n1)CCCN(Cc1ccc(F)cc1)C2=O`, for which the “% Inhibition” value is given as -14% and the Z score was 1.34.
For `CCCc1ccc(CN2CCc3[nH]cnc3[C@@H]2C2CC2)o1`, the “% Inhibition” value is -10% and the Z score is on record as 1.54.
The matching figures for `COC1(C)CN(c2cc(C3CC3)ncn2)C1`: -2% and 0.28.
Turning to `COC1CCCCC1NC(=O)Nc1cccc(-c2ncc(C)o2)c1` (stereo not given), the “% Inhibition” value was -3% and the Z score was 0.66.
In the case of `CC(C)C(=O)N(Cc1cc(NC(=O)c2cccs2)ccc1N(C)C)CC1CC1`, the “% Inhibition” value is reported as -14% and the Z score turned out to be 2.64.
As to `Cc1ccncc1NC(=O)C1CCCN(C(=O)OC(C)(C)C)C1C` (stereo not given), the “% Inhibition” value was -2% and the Z score amounted to 0.29.
On the same counts, the results for `CCOc1cc(CNc2ccc3c(c2)OCO3)ccc1OC` are -1% and 0.26.
As for `CC1CCCC(C)N1C(=O)C(=O)Nc1ccc(NC(N)=O)cc1` (stereo not given), the “% Inhibition” value is -9% and the Z score is recorded as 1.57.
On the same counts, the results for `C[C@H](NC(=O)c1cc(F)cc(F)c1)c1ccccc1NC(=O)c1cc(F)cc(F)c1` are 31% and -4.12.
Take `CN(C)S(=O)(=O)N[C@H]1CCN(C(=O)COc2ccccc2)C1`: the “% Inhibition” value is given as -8% and the Z score is on record as 1.43.
On the same counts, the results for `O=C(Nc1ccc2c(c1)C(O)=Nc1cccnc1O2)C1CCCC1` are 8% and -0.97.
The matching figures for `CO[C@H]1CCCC[C@@H]1NC(=O)N1CCC[C@@H]1c1csc(C)n1`: -12% and 1.39.
The matching figures for `COc1cc(NC(=O)Cn2cc(C)cn2)sn1`: 0% and 0.03.
Consider `CC(C)(C)N(CCS(C)(=O)=O)C(=O)c1cc(Cl)sc1Cl`, for which the “% Inhibition” value is on record as -8% and the Z score is recorded as 1.31.
In the case of `CC[C@H](NS(=O)(=O)N1CCOCC1)c1nc(-c2ccccc2)c[nH]1`, the “% Inhibition” value is -6% and the Z score amounted to 0.98.
As to `CC1CCN(c2ccc3nnc(CCC(=O)N4CCN(c5ccccn5)CC4)n3n2)CC1`, the “% Inhibition” value is on record as -18% and the Z score is listed as 1.73.
On to `Cc1nc2c(c(N3CCCC3)n1)CCN(C(=O)CCCn1cncn1)C2`, for which the “% Inhibition” value turned out to be 3% and the Z score was -0.46.
Take `O=C(Nc1cc(Cl)ccc1O)c1cnc(-c2ccncc2)s1`: the “% Inhibition” value is -11% and the Z score came to 1.54.
As for `Cc1cc(C)c(CCNCc2c[nH]nc2-c2cccnc2)c(C)c1`, the “% Inhibition” value is -7% and the Z score is on record as 1.01.
On the same counts, the results for `NS(=O)(=O)c1csc(C2OCCO2)c1` are -9% and 1.68.
On the same counts, the results for `Cc1ccc(C(C)(C)CN(C)CC(=O)NC(N)=O)cc1` are -15% and 3.07.
The matching figures for `O=C1NCCCC[C@@H]1NC1CCN(Cc2ccccc2)CC1`: -7% and 1.35.
`O=C(CN1CCC(c2ncccn2)CC1)Nc1ccc(F)cc1F`: the “% Inhibition” value is reported as -22% and the Z score stood at 2.18.
On the same counts, the results for `COc1ccc(OC)c2c1cc1n2CC(C)(C(=O)NC2CCCCC2C)N(CCC(C)C)C1=O` (stereo not given) are -7% and 1.2.
With `CCc1cc(N2CCC[C@H](n3ccnn3)C2)nc(CC)n1`, the “% Inhibition” value is given as -8% and the Z score stood at 1.73.
The matching figures for `O=S(=O)(c1ccc(-n2cnnn2)cc1)N1CCN(c2cnccn2)CC1`: -5% and 0.91.
The matching figures for `CCCCN(C)c1nnc(NC(=O)NCc2ccccc2)s1`: -19% and 2.84.
`O=C(NCc1ccc2nonc2c1)N(Cc1cccnc1)C1CCCCC1`: the “% Inhibition” value came out at 8% and the Z score was -1.09.
On the same counts, the results for `COCc1cn([C@@H]2CC[C@H]3CCOc4ccccc4C(=O)N4CCNC[C@H]4C(=O)NC[C@H]2O3)nn1` are 31% and -3.49.
On the same counts, the results for `CCOc1ccc(NC(=O)[C@@H]2CN(S(=O)(=O)c3ccc(OC)cc3)c3ccc(C)cc3O2)cc1` are -11% and 1.48.
On the same counts, the results for `COc1ccc(-n2cccn2)cc1S(=O)(=O)N1CCc2[nH]cnc2C1` are 3% and -0.55.
With `COc1ccccc1C(=O)N1CCn2c(nnc2[C@@H]2CCCCN2C(=O)N(C)C)C1`, the “% Inhibition” value stood at 2% and the Z score is -0.25.
For the molecule `CCCN1CCC(NC(=O)Cc2cccs2)CC1`, the “% Inhibition” value was found to be 9% and the Z score is given as -0.79.
In the case of `O=C(CS(=O)(=O)c1ccccc1)NC1CCCCCC1`, the “% Inhibition” value was -1% and the Z score turned out to be 0.17.
On the same counts, the results for `CC(C)COc1ccc(CN=C(N)N)cc1Cl` are 12% and -2.22.
The matching figures for `c1ccc(NCC2OCc3ccccc3CO2)cc1`: -6% and 0.76.
On to `Cc1nc(CC2CCCN(C(=O)NC3CCN(c4ccccn4)C3)C2)no1` (stereo not given), for which the “% Inhibition” value was -5% and the Z score was 0.67.
Consider `COCC(=O)Nc1cc(C)nn1-c1nc2c(c(=O)[nH]1)CCC2`, for which the “% Inhibition” value was determined as 1% and the Z score was -0.17.
On the same counts, the results for `Cc1ccc(Cl)c(N(Cc2ncc[nH]2)C(=O)c2cscn2)c1` are -11% and 1.36.
The matching figures for `CC(C)(C)[C@@H](CO)NC(=O)Nc1ccn(CCC#N)n1`: -12% and 1.55.
On the same counts, the results for `CN(C)CC[C@H]1CCCN1C(=O)OCC(F)(F)F` are 1% and -0.22.
As to `O=C(CN1CCCOC1=O)NC1CCCC1c1ccc(F)cc1` (stereo not given), the “% Inhibition” value came to 29% and the Z score is given as -3.24.
The matching figures for `CCN1CCN(C(=O)c2ccc(C)n2C(F)F)CC1=O`: -11% and 1.42.
The matching figures for `C=CCNC(=O)CNC(=O)COc1ccccc1`: -9% and 1.34.
The matching figures for `CNS(=O)(=O)Nc1ccc(NC(=O)C2CCOC2C(C)C)cc1` (stereo not given): 1% and -0.08.
Regarding `C[C@H]1CCc2[nH]nc(C(=O)NCc3nncn3CCc3ccccc3)c2C1`, the “% Inhibition” value was -18% and the Z score is on record as 2.28.
On the same counts, the results for `O=C(c1cc(C(F)(F)F)n[nH]1)N1C[C@@H]2CC[C@H]1CN(Cc1ccccn1)C2` are -3% and 0.34.
On to `Cc1nc(CCNS(=O)(=O)CCNS(=O)(=O)c2ccccc2)cs1`, for which the “% Inhibition” value is listed as -5% and the Z score worked out at 0.56.
The matching figures for `CCC(=O)Nc1ccc(C(=O)N2CCC3(CC2)CN(C)CCN3C)cc1`: -11% and 2.01.
The matching figures for `c1ccc2c(c1)nnn2OCCN1CCCCC1`: -7% and 1.06.
On the same counts, the results for `CCCC1CC1NC(=O)NC1CCCC2OCCC12` (stereo not given) are 5% and -0.72.
Consider `CC(C)c1nnc(N2CCC(c3cc[nH]n3)CC2)s1`, for which the “% Inhibition” value was -9% and the Z score is on record as 1.93.
On the same counts, the results for `COc1ccc(NC(=O)N2CCCCC[C@@H]2CN2CCCC2)cc1` are -2% and 0.3.
The matching figures for `COc1ccc(C)cc1C(=O)N1CCC(CCN2CCCC2=O)CC1`: -8% and 1.52.
